{
  "source": "the BET-seq Pho4 binding data (Le et al. 2018)",
  "note": "Some of the results follow. Values were computed here from the reads of four pooled replicates and scatter widely.",
  "data": [
    {"target": "T1, Pho4 (S. cerevisiae) (UniProt P07270)", "T1 sequence": "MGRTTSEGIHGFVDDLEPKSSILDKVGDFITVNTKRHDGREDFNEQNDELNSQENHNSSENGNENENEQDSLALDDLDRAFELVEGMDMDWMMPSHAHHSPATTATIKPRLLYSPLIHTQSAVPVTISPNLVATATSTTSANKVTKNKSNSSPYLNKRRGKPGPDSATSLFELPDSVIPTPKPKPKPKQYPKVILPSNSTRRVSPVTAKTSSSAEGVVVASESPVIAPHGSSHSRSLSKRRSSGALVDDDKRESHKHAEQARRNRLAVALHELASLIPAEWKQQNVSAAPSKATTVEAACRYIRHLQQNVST", "assay": "relative binding free energy (BET-seq); higher = weaker binding", "settings": "reference: library average", "units": {"relative binding free energy": "kcal/mol"}, "values": [
      {"sequence": "CGAAGCACGTGTGGTA", "relative binding free energy": 0},
      {"sequence": "GGATACACGTGGTTGA", "relative binding free energy": 0},
      {"sequence": "TTTTACACGTGAGCGG", "relative binding free energy": 0.32},
      {"sequence": "GGGAGCACGTGGGGTT", "relative binding free energy": -0.23},
      {"sequence": "ATCTTCACGTGGGCGG", "relative binding free energy": 0.05},
      {"sequence": "GCGTGCACGTGGTGAG", "relative binding free energy": -0.09},
      {"sequence": "CTTGTCACGTGGGTCG", "relative binding free energy": -0.1},
      {"sequence": "CGAAGCACGTGGTGGT", "relative binding free energy": -0.26},
      {"sequence": "TACAACACGTGGGGTG", "relative binding free energy": -0.21},
      {"sequence": "TCATACACGTGGTTTA", "relative binding free energy": -0.06},
      {"sequence": "GAGTGCACGTGTTCGG", "relative binding free energy": -0.12},
      {"sequence": "AGTAACACGTGCGTTT", "relative binding free energy": 0.03},
      {"sequence": "GGGTGCACGTGGAAGG", "relative binding free energy": 0.17},
      {"sequence": "GTGGCCACGTGTATGT", "relative binding free energy": -0.06},
      {"sequence": "GTAGGCACGTGATGGC", "relative binding free energy": 0},
      {"sequence": "TTTTCCACGTGCTGTT", "relative binding free energy": 0.07},
      {"sequence": "GTGGTCACGTGACGGA", "relative binding free energy": 0.19},
      {"sequence": "GGGGTCACGTGGCGAT", "relative binding free energy": 0.07},
      {"sequence": "AGGTGCACGTGAAATG", "relative binding free energy": 0.22},
      {"sequence": "TAAGGCACGTGGTGCG", "relative binding free energy": -0.17},
      {"sequence": "AGTAACACGTGTCGTT", "relative binding free energy": 0},
      {"sequence": "GTAAGCACGTGCTTTA", "relative binding free energy": 0.05},
      {"sequence": "TCTTGCACGTGTCGTG", "relative binding free energy": 0.08},
      {"sequence": "TAGTACACGTGGGATG", "relative binding free energy": -0.01},
      {"sequence": "ACTTGCACGTGAGTGG", "relative binding free energy": 0.15},
      {"sequence": "TTAGTCACGTGAATAT", "relative binding free energy": 0.28},
      {"sequence": "TCTGACACGTGGATGG", "relative binding free energy": 0.02},
      {"sequence": "ATTCACACGTGGTGTT", "relative binding free energy": -0.1},
      {"sequence": "GTTCACACGTGGATGA", "relative binding free energy": 0.24},
      {"sequence": "AAATGCACGTGAGGTT", "relative binding free energy": 0.26},
      {"sequence": "TAAAGCACGTGATGTT", "relative binding free energy": 0.08},
      {"sequence": "ATGTTCACGTGCTTGT", "relative binding free energy": 0.19},
      {"sequence": "ATTGGCACGTGTCTAG", "relative binding free energy": -0.04},
      {"sequence": "GGTAGCACGTGTGTTT", "relative binding free energy": 0},
      {"sequence": "TAGTGCACGTGTATGC", "relative binding free energy": -0.08},
      {"sequence": "GCAGACACGTGGGGTA", "relative binding free energy": -0.12},
      {"sequence": "GGGTACACGTGCGAGT", "relative binding free energy": 0.09},
      {"sequence": "TGTGGCACGTGTGGTT", "relative binding free energy": 0},
      {"sequence": "GGGAACACGTGTTGTA", "relative binding free energy": 0},
      {"sequence": "TTTTACACGTGAGAGT", "relative binding free energy": 0.27},
      {"sequence": "TCTTTCACGTGGTGTA", "relative binding free energy": 0.19},
      {"sequence": "AGTGTCACGTGGATTG", "relative binding free energy": -0.02},
      {"sequence": "GATTTCACGTGGGCGT", "relative binding free energy": 0.34},
      {"sequence": "GGCTTCACGTGTAGGG", "relative binding free energy": 0.25},
      {"sequence": "ATTCGCACGTGTGTGG", "relative binding free energy": 0.01},
      {"sequence": "TGGTTCACGTGTGACT", "relative binding free energy": 0.32},
      {"sequence": "TACGTCACGTGAGGGG", "relative binding free energy": 0.38},
      {"sequence": "GTGTTCACGTGCGGTC", "relative binding free energy": 0.35},
      {"sequence": "TCGGTCACGTGTATCG", "relative binding free energy": 0.14},
      {"sequence": "TTCGGCACGTGATTAG", "relative binding free energy": -0.1},
      {"sequence": "TCTTTCACGTGTTACT", "relative binding free energy": 0.26},
      {"sequence": "GTCGGCACGTGTTTAT", "relative binding free energy": 0.14},
      {"sequence": "AGATCCACGTGTGGAT", "relative binding free energy": 0.23},
      {"sequence": "CTTGCCACGTGGGGTT", "relative binding free energy": -0.38},
      {"sequence": "CTTGACACGTGGGTTG", "relative binding free energy": -0.14},
      {"sequence": "GGCATCACGTGGGTAT", "relative binding free energy": 0.1},
      {"sequence": "GAGTACACGTGGTTTT", "relative binding free energy": 0.07},
      {"sequence": "TGGATCACGTGTCAGG", "relative binding free energy": 0.21},
      {"sequence": "TTTATCACGTGCTGTA", "relative binding free energy": 0.14},
      {"sequence": "GGGGGCACGTGTTGGC", "relative binding free energy": 0.03},
      {"sequence": "AGTAGCACGTGCGGGG", "relative binding free energy": -0.09},
      {"sequence": "ACTGTCACGTGGTCGG", "relative binding free energy": 0.03},
      {"sequence": "TTAATCACGTGTTCGT", "relative binding free energy": 0.17},
      {"sequence": "AATAGCACGTGTCGGT", "relative binding free energy": -0.04},
      {"sequence": "CTGTTCACGTGGGAGG", "relative binding free energy": 0.19},
      {"sequence": "CGCGGCACGTGTCGGT", "relative binding free energy": -0.05},
      {"sequence": "AGTTGCACGTGAGGCT", "relative binding free energy": 0.16},
      {"sequence": "GTGAACACGTGTTAGG", "relative binding free energy": -0.05},
      {"sequence": "CTGTACACGTGGGCGG", "relative binding free energy": -0.14},
      {"sequence": "TAATGCACGTGAGGCT", "relative binding free energy": 0.15},
      {"sequence": "AAAGGCACGTGTTAGG", "relative binding free energy": -0.05},
      {"sequence": "TAGGTCACGTGCGGTA", "relative binding free energy": 0.01},
      {"sequence": "TTTGTCACGTGGTGGA", "relative binding free energy": 0.11},
      {"sequence": "TTGGTCACGTGCTGTG", "relative binding free energy": 0.05},
      {"sequence": "TGTCCCACGTGTAGGT", "relative binding free energy": 0.02},
      {"sequence": "AGTTCCACGTGTGAGG", "relative binding free energy": -0.04},
      {"sequence": "TAAGTCACGTGGGTGC", "relative binding free energy": -0.08},
      {"sequence": "ACTATCACGTGGTTGT", "relative binding free energy": 0.21},
      {"sequence": "GTGATCACGTGGTATT", "relative binding free energy": 0.09},
      {"sequence": "TAAGTCACGTGGGACT", "relative binding free energy": -0.03},
      {"sequence": "GTGTGCACGTGAATAG", "relative binding free energy": 0.35},
      {"sequence": "GCTAACACGTGTGTGG", "relative binding free energy": -0.01},
      {"sequence": "GGGCCCACGTGGGTGG", "relative binding free energy": -0.23},
      {"sequence": "TGTTGCACGTGGTCTG", "relative binding free energy": -0.29},
      {"sequence": "TAGGGCACGTGGGTTG", "relative binding free energy": -0.22},
      {"sequence": "TCAAGCACGTGTGTTT", "relative binding free energy": -0.06},
      {"sequence": "TCGGTCACGTGATGGG", "relative binding free energy": 0.22},
      {"sequence": "TGGTGCACGTGCGCGG", "relative binding free energy": -0.17},
      {"sequence": "GACGCCACGTGTGGGT", "relative binding free energy": 0.05},
      {"sequence": "CTCGTCACGTGTTAGT", "relative binding free energy": 0.08},
      {"sequence": "GGGGACACGTGTATAA", "relative binding free energy": 0.11},
      {"sequence": "ATGAGCACGTGTGCAT", "relative binding free energy": -0.05},
      {"sequence": "TGAGACACGTGGAGGA", "relative binding free energy": -0.03},
      {"sequence": "TGGTGCACGTGGGCGG", "relative binding free energy": -0.15},
      {"sequence": "AATGACACGTGGGTGG", "relative binding free energy": -0.03},
      {"sequence": "TGGGACACGTGGGGTG", "relative binding free energy": -0.07},
      {"sequence": "GCATTCACGTGGTGTG", "relative binding free energy": 0.16},
      {"sequence": "TCGTGCACGTGGTTCG", "relative binding free energy": -0.15},
      {"sequence": "GGTTGCACGTGCGCGG", "relative binding free energy": -0.01},
      {"sequence": "AGAGGCACGTGGTCTG", "relative binding free energy": -0.19},
      {"sequence": "GGTTTCACGTGGAGCG", "relative binding free energy": 0.45},
      {"sequence": "TTATACACGTGTCAGT", "relative binding free energy": -0.08},
      {"sequence": "GTGGCCACGTGTCTTG", "relative binding free energy": 0.02},
      {"sequence": "TGTGTCACGTGCTGTG", "relative binding free energy": -0.01},
      {"sequence": "ATGTTCACGTGATCGT", "relative binding free energy": 0.18},
      {"sequence": "GCGGACACGTGGTTTT", "relative binding free energy": 0.02},
      {"sequence": "TGGGGCACGTGCGGCT", "relative binding free energy": -0.21},
      {"sequence": "GGAGGCACGTGCGTAT", "relative binding free energy": -0.13},
      {"sequence": "CGATTCACGTGAGGGG", "relative binding free energy": 0.3},
      {"sequence": "GTGGTCACGTGATCAG", "relative binding free energy": 0.46},
      {"sequence": "AGGGGCACGTGAGACG", "relative binding free energy": -0.12},
      {"sequence": "ATTTTCACGTGCGTTG", "relative binding free energy": 0.21},
      {"sequence": "AGTTTCACGTGCTCGG", "relative binding free energy": 0.24},
      {"sequence": "GAGGTCACGTGAGATA", "relative binding free energy": 0.43},
      {"sequence": "TGCGGCACGTGGGGTA", "relative binding free energy": -0.26}
    ]}
  ]
}
